Biological target: T1, anti-PD-1 Nb C12-Fc (Bactrian camel)
T1 construct: VHH C12 selected from a naive Bactrian camel phage display library; Nb C12 fused to the human IgG1 Fc fragment in plasmid pCZN1; about 40 kDa on SDS-PAGE; also called anti-PD-1 Nb-Fc; PD-1 C12 Nb-Fc
Assay: far-Western, overlay or dot blot; Western blot: total protein of activated human T cells (RIPA lysate) on 10% SDS-PAGE, PVDF membrane probed with anti-PD-1 Nb-Fc (1:500) overnight at 4 C; HRP-conjugated antihuman IgG
Conditions: one partner purified

binding result: binds
B1: PD-1 protein expressed on activated human T cells (receptor)
chain: not shown
notes: On fixed, permeabilised cells in the immunofluorescence; in a cell lysate resolved by SDS-PAGE in the Western blot; also called PD-1 protein on human CD4+ T cells

Source: article PMC9867944 (Bioscience Reports, 2023)
